Results published in patent US11192863B2, “Antiviral compounds and methods” (Biotron Limited, priority 2003, dated 2021).

Key:
Vpu ion channel = Vpu ion channel (Human immunodeficiency virus type 1 group M subtype B, UniProt P05919); settings: for Results (Compounds Inhibiting the Vpu Ion Channel in Bilayers): drug 100 μM in CIS and TRANS chambers, Vpu N-terminal peptide (residues 1-32), number of experiments x category; for blocking of Vpu channels (in words): bilayer experiments
MHV E protein = MHV E protein (Murine coronavirus, UniProt P0C2R0); settings: halo of growth score; E. coli expressing E protein at 37° C.
HCV p7 protein = HCV p7 protein (Hepatitis C virus genotype 1a, UniProt P27958, L790F); settings: halo of growth score; E. coli expressing p7 at 37° C.

SMILES | Results (Compounds Inhibiting the Vpu Ion Channel in Bilayers) (Vpu ion channel) | MHV E protein Inhibition (score) (MHV E protein) | HCV p7 protein Inhibition (score/# of times tested) (HCV p7 protein) | Results (Compounds Inhibiting the Vpu Ion Channel in Bilayers) (Vpu ion channel; listed as EIPA) | Results (Compounds Inhibiting the Vpu Ion Channel in Bilayers) (Vpu ion channel; listed as MIA) | blocking of Vpu channels (in words) (Vpu ion channel)
NC(N)=NC(=O)c1ccc2ccccc2c1 [2-napthoylguanidine] | 7x weak block | 0.6 score | 1.0/3 score | – | – | –
N=C(N)NC(=O)/C=C/c1cccc(C(F)(F)F)c1 [3-(trifluoromethyl)cinnamoylguanidine] | 4x strong blocks; 1x no effect | 2.9 score | 3.34/3 score | – | – | –
COc1nc(N2CCCCCC2)c(Cl)nc1C(=O)N=C(N)N [3-methoxy-HMA, 3-methoxy-5-(N,N-Hexamethylene)-amiloride] | 3x partial block | – | – | – | – | –
Cc1cccc(/C=C/C(=O)NC(=N)N)c1 [3-methylcinnamoylguanidine] | 2x strong block; 2x partial | 0.5 score | 0.63/1 score | – | – | –
N=C(N)NC(=O)c1ccc(-c2ccccc2)cc1 [4-phenylbenzoylguanidine] | 3x strong block | 1.8 score | 2.19/2 score | – | – | –
N=C(N)NC(=O)/C=C/C=C/c1cccc(Br)c1 [5-(3′-bromophenyl)penta-2,4-dienoylguanidine] | – | 0.1 score | 1.0/1 score | – | – | –
NC(N)=NC(=O)c1nc(Cl)c(Nc2ccc(F)cc2)nc1N [5-(4-fluorophenyl)amiloride] | – | 0.5 score | 1.0/1 score | – | – | –
CN(C)c1nc(N)c(C(=O)N=C(N)N)nc1Cl [5-(N,N-Dimethyl)amiloride hydrochloride] | – | 0.5 score | 1.0/1 score | – | – | –
CCN(c1nc(N)c(C(=O)N=C(N)N)nc1Cl)C(C)C [5-(N-Ethyl-N-isopropyl)amiloride, 5-(N-ethyl-N-isopropyl)amiloride] | 1x partial block | – | 1.88/1 score | 3x weak block; | – | –
CC(C)CN(C)c1nc(N)c(C(=O)N=C(N)N)nc1Cl [5-(N-Methyl-N-isobutyl)amiloride, 5-(N-methyl-N-isobutyl)amiloride] | 1x partial block | – | 1.88/1 score | – | 1x Strong block; 1x weak | –
N=C(N)NC(=O)/C=C/c1cc(Br)ccc1F [5-bromo-2-fluorocinnamoylguanidine] | – | 2.1 score | 3.73/6 score | – | – | –
COc1ccc(Br)cc1/C=C/C(=O)NC(=N)N [5-bromo-2-methoxycinnamoylguanidine] | – | 3.3 score | 2.32/2 score | – | – | –
CC(C)(C)Nc1nc(N)c(C(=O)N=C(N)N)nc1Cl [5-tert-butylamino-amiloride] | 3x partial block | 0.1 score | 1.88/1 score | – | – | –
COc1ccc2cc(C(=O)NC(=N)N)ccc2c1 [6-methoxy-2-naphthoylguanidine] | 5x strong block | 1.8 score | 3.33/3 score | – | – | –
N=C(N)NC(=O)/C=C/c1ccccc1Br [(2-Bromocinnamoyl)guanidine] | – | 1.4 score | 3.00/3 score | – | – | –
N=C(N)NC(=O)/C=C/c1ccccc1Cl [(2-Chlorocinnamoyl)guanidine] | 4x strong; 2x partial blocks | 0.7 score | 3.31/6 score | – | – | –
COc1ccccc1/C=C/C(=O)NC(=N)N [(2-Methoxycinnamoyl)guanidine] | – | 0.8 score | 0.75/1 score | – | – | –

SMILES | Results (Compounds Inhibiting the Vpu Ion Channel in Bilayers) (Vpu ion channel) | MHV E protein Inhibition (score) (MHV E protein) | HCV p7 protein Inhibition (score/# of times tested) (HCV p7 protein) | Results (Compounds Inhibiting the Vpu Ion Channel in Bilayers) (Vpu ion channel; listed as EIPA) | Results (Compounds Inhibiting the Vpu Ion Channel in Bilayers) (Vpu ion channel; listed as MIA) | blocking of Vpu channels (in words) (Vpu ion channel)
COc1cccc(/C=C/C(=O)NC(=N)N)c1 [(3-Methoxycinnamoyl)guanidine] | – | 0.8 score | 1.0/1 score | – | – | –
N=C(N)NC(=O)/C=C/c1cccc([N+](=O)[O-])c1 [(3-Nitrocinnamoyl)guanidine] | – | 0.1 score | 1.71/1 score | – | – | –
NC(N)=NC(=O)/C=C/c1ccc(Br)cc1 [(4-Bromocinnamoyl)guanidine] | – | 1.8 score | 3.47/4 score | – | – | –
NC(N)=NC(=O)/C=C/c1ccc(Cl)cc1 [(4-Chlorocinnamoyl)guanidine] | – | 1.3 score | 3.16/4 score | – | – | –
N=C(N)NC(=O)/C=C/c1ccc(O)cc1 [(4-Hydroxycinnamoyl)guanidine] | – | 0.7 score | 1.63/1 score | – | – | –
COc1ccc(/C=C/C(=O)NC(=N)N)cc1 [(4-Methoxycinnamoyl)guanidine] | – | 0.3 score | 1.88/1 score | – | – | –
NC(N)=NC(=O)c1ccc(Oc2ccccc2)cc1 [(4-Phenoxybenzoyl)guanidine] | – | 2.4 score | 2.63/1 score | – | – | –
C/C(=C\c1ccccc1)C(=O)NC(=N)N [(a-Methylcinnamoyl)guanidine, (α-Methylcinnamoyl)guanidine] | – | 1.0 score | 1.14/1 score | – | – | –
N=C(N)NC(=O)C1CC1c1ccccc1 (stereo not drawn) [(trans-2-Phenylcyclopropanecarbonyl)guanidine] | – | 0.6 score | 1.63/1 score | – | – | –
N=C(N)NC(=O)c1nc(Cl)c(N)nc1N [Amiloride, reference compound] | – | – | – | – | – | not a blocker
N/C(=N\C(=O)c1nc(Cl)c(N)nc1N)NCc1ccccc1 [Benzamil, N-Benzyl-N′-(3,5-diamino-6-chloro-pyrzine-2-carbonyl)-guanidine] | 3x partial block; 7x no effect | – | – | – | – | much less effective
NC(N)=NC(=O)c1nc(Cl)c(-c2ccccc2)nc1N [N-amidino-3-amino-5-phenyl-6-chloro-2-pyrazinecarboxamide] | 3x partial block | – | – | – | – | –
N=C(N)NCCCCCOCc1cccc(COCCCCCNC(=N)N)c1 [N-{5-[3-(5-Guanidino-pentyloxymethyl)-benzyloxy]-pentyl}-guanidine] | 3x strong block; 1x no effect | – | – | – | – | –
N/C(=N\C(=O)c1nc(Cl)c(N)nc1N)Nc1ccccc1 [Phenamil, N-(3,5-Diamino-6-chloro-pyrazine-2-carbonyl)-N′-phenylguanidine] | 3x Strong block | – | – | – | – | strong blocking
Cl.N=C(N)NC(=O)/C=C/c1ccccc1 [cinnamoylguanidine hydrochloride] | – | 1.1 score | 1.32/2 score | – | – | –
N=C(N)NC(=O)/C=C/c1cccc2ccccc12 [trans-3-(1-napthyl)acryloylguanidine] | – | 2.8 score | 2.44/2 score | – | – | –

Counter-ions that a name gives are not always drawn. Like-named read-outs stand apart in the source and are kept apart here.
